Measured values from PubChem BioAssay AID1347073 (National Center for Advancing Translational Sciences (NCATS), 2019).
The whole screen tested about 45,000 compounds, of which about 200 (0.44%) were called active. Inconclusive results (about 7%) are left out. Calls come from the whole dose curve; as a rule, active = well fitted activation curve with a large enough effect; inconclusive = small, poorly fitted or top-dose-only effect; inactive = no such curve, though single readings can be large or run the other way. The list shows a part of the results.

Assay: qHTS of TDP-43 Inhibitors: NCGC Sytravon Library Screen; note: 0% is about no effect; nearly all actives have a fitted effect of over 55% in size
Conditions: yeast TDP-43 toxicity rescue, BacTiter-Glo growth, 24 h; series mostly up to 46.1 µM; growth rescue (activation): at the top concentration
How it was run: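 TDP-43-expressing yeast, pregrown in raffinose, seeded at OD600 0.02 in galactose medium with compound for 24 hr at 30 deg C. Growth read by BacTiter-Glo luminescence, so rescue of toxicity appears as activation.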

Row | SMILES | growth rescue (activation)
1 | CCOC(=O)c1c(C)[nH]c(C(=O)CSc2nnc(Nc3ccccc3F)s2)c1C | inactive: -20.2%
2 | CCOc1ccc(S(=O)(=O)n2ccc(C)n2)cc1 | inactive: 5.65%
3 | CC(=O)c1cccc(NC(=O)CN(C)S(=O)(=O)c2ccccc2)c1 | inactive: 5%
4 | COC(=O)[C@H](CCSC)NC(=O)Nc1ccc(OC)cc1 | inactive: 24.8%
5 | CCOC(=O)C(=Cc1cn(C)c2ccc(S(=O)(=O)N(C)C)cc12)C(=O)OCC | inactive: -4.43%
6 | CCOC(=O)C1=C(c2ccccc2)Nc2ncnn2C1c1ccc(O)cc1 (configuration not stated) | inactive: 6.45%
7 | COc1ccc(C(=O)OCC[N+]2(C)CCOCC2)cc1 | inactive: -2.36%
8 | COc1ccc(/C=N/NC(=O)CCc2n[nH]c(=O)[nH]c2=O)cc1OC | inactive: -6.69%
9 | Cc1cccc(NC(=O)c2cc(-c3c(C)cc(C)cc3O)n[nH]2)c1 | inactive: 7.33%
10 | COc1ccc(C(=O)O)cc1S(=O)(=O)Nc1ccc2cn[nH]c2c1 | inactive: 12.7%
11 | CC(=O)C1=C(O)C(=O)N(Cc2ccccc2)C1c1ccc(Br)cc1 (configuration not stated) | inactive: 2.48%
12 | COc1ccc(NC(=O)CN2CCN(C(=O)N3CCOCC3)CC2)cc1 | inactive: -11.6%
13 | CC(C)(C)N(Cc1ccccc1)C(=O)COC(=O)Cn1cnc2ccccc2c1=O | inactive: 14.2%
14 | COc1ccc(-c2nnc(SCC(=O)c3ccc[nH]3)n2-c2ccccc2)cc1 | inactive: 7.49%
15 | Cc1ccc(N2CCC(N3CCN(C4CCCCC4)C(CCO)C3)CC2)cc1 (configuration not stated) | inactive: -7.32%
16 | Cc1cccc(C)c1NC(=O)COC(=O)c1ccc(N2CCCC2)c([N+](=O)[O-])c1 | inactive: 15.8%
17 | Cc1[nH]c(=O)[nH]c(=O)c1Sc1ccccc1[N+](=O)[O-] | inactive: 7.64%
18 | COC(=O)c1ccc(COC(=O)c2nn(C)c(=O)c3ccccc23)cc1 | inactive: 9.14%
19 | COc1ccc(NS(=O)(=O)c2cccc(Cl)c2Cl)cc1S(=O)(=O)N1CCCCC1 | inactive: 21%
20 | COc1ccc(C)cc1S(=O)(=O)n1ccnc1C | inactive: 10.9%
21 | Cc1ccc(C(=O)O)cc1NC(=S)NC(=O)c1ccc(-c2ccccc2)cc1 | inactive: 9.6%
22 | COc1ccc(/C=C(\NC(=O)c2ccco2)C(=O)N2CCCCC2)cc1 | inactive: 3.95%
23 | CCOc1ccc(C(=O)NC2CCN(C(=O)Nc3ccc(F)cc3)CC2)cc1 | inactive: 12.5%
24 | COc1ccc(Cc2cnc(N)s2)cc1 | inactive: 14.4%
25 | O=S(=O)(NC(=NC1CCCCC1)c1ccccc1)c1ccc(F)cc1 | inactive: 13.9%
26 | Cc1ccc(NC(=O)[C@@H]2CCCN2S(=O)(=O)c2ccccc2F)cc1S(=O)(=O)N1CCOCC1 | inactive: 1.85%

Row | SMILES | growth rescue (activation)
27 | Cc1ccc(C)c(N2N=C(C(=O)Nc3cccc(S(=O)(=O)N4CCCCC4)c3)CCC2=O)c1 | inactive: 22.7%
28 | CCCc1nc(SCC(=O)Nc2nccs2)c2ccccc2n1 | inactive: 19.1%
29 | Cc1cc(C)n(CCN(C)C(=O)CCc2nnc(-c3ccc4c(c3)OCO4)o2)n1 | inactive: -8.8%
30 | Cc1cc(C)cc(C(=O)OCC(=O)NCc2ccco2)c1 | inactive: 3.93%
31 | CC(C(=O)N(C)Cc1ccccc1)N1CCN(C/C=C/c2ccccc2)CC1 (configuration not stated) | inactive: -5.71%
32 | COc1ccc(N2CCN(C(=O)c3cc4c(s3)-c3ccccc3S(=O)(=O)C4)CC2)cc1 | inactive: -3.1%
33 | O=C(COC(=O)C1CCC(=O)N1)Nc1cc(Cl)ccc1Cl (configuration not stated) | inactive: 16.2%
34 | COc1ccc2nc(C)cc(SCC(=O)N/N=C/c3ccc(O)cc3O)c2c1 | inactive: 15.2%
35 | COc1ccccc1CNc1nc(NCc2ccccc2OC)c2sccc2n1 | inactive: 6.53%
36 | Cc1cc(C)cc(NC(=O)NC2CCN(CC(=O)Nc3cccc(Cl)c3C)CC2)c1 | inactive: 5.46%
37 | COc1ccc(C(=O)C2CCCN(C(=O)c3cc(C)nc(C)n3)C2)cc1OC (configuration not stated) | inactive: 12.3%
38 | N#C/C(=C\c1ccccc1)C(=O)NNS(=O)(=O)c1ccc(Br)cc1 | inactive: 25.2%
39 | CCC1C(=O)N=C(SCC(=O)Nc2ccc(S(N)(=O)=O)cc2)NC1=O (configuration not stated) | inactive: -2.52%
40 | O=C(c1ccccc1NS(=O)(=O)c1ccccc1[N+](=O)[O-])N1CCOCC1 | inactive: -11.4%
41 | COc1ccc(CCNC(=O)c2ccc3ccccc3n2)cc1OC | inactive: 27.8%
42 | O=C(COC(=O)CC1c2ccccc2CCN1S(=O)(=O)c1ccc(F)cc1)Nc1ccccc1 (configuration not stated) | inactive: 14.7%
43 | Cc1cc(C)c(NC(=O)Cn2nnc(-c3nc(-c4ccncc4)no3)c2N)c(C)c1 | inactive: 10.9%
44 | COc1ccc(-c2nc3n(n2)C(c2ccncc2)C(C(N)=O)=C(C)N3)cc1 (configuration not stated) | inactive: -4.67%
45 | O=C(Nc1ccc[n+](CC(=O)c2cccc3ccccc23)c1)c1ccccc1 | inactive: -25.9%
46 | C[C@]12CCC(=O)C=C1C=CC1C2CC[C@@]2(C)C1CC[C@@]21CCC(=O)O1 (some centres not stated) | inactive: 32.7%
47 | CCOC(=O)n1c(SCC(=O)N(CC)CC)nc2ccccc21 | inactive: 12.8%
48 | Nc1ccc(N2CCCC2)c(S(=O)(=O)Nc2cccc(C(F)(F)F)c2)c1 | inactive: -13.9%
49 | CCOc1ccc(C(=O)NC2CCN(CC(=O)NCc3ccccc3)CC2)cc1 | inactive: -8.78%
50 | CN1CCN(CC(=O)NC23CC4CC(CC(C4)C2)C3)CC1 | inactive: 2.36%
51 | Fc1ccc(C2NCCn3cccc32)cc1 (configuration not stated) | inactive: 10.1%
52 | CN1CCN(C(=O)CCN2C(=O)/C(=C\c3ccc(F)cc3)SC2=S)CC1 | inactive: 10.9%
